# Measured values from the supplement of paper PMC11417369.
# This is one part of the list.
# Test system: PfSIP2 AP2 domain 1 (GST-tagged)
# Experiment: gcPBM binding intensity (ln(normalized median fluorescence intensity)); higher = stronger DNA binding
# How it was run: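 Binding intensity is defined as the maximum Masliner-normalised natural-log median intensity across replicate spots for either probe orientation. It was measured on an Agilent 4 × 180k array of primer-extended double-stranded 36-bp intergenic genomic probes and negative controls, to which GST-tagged P. falciparum DNA-binding domains made in E. coli were applied for 1 h in 1× PBS with 1% milk, 0.2 mg/ml BSA, 0.5% salmon testes DNA and 0.03% Triton X-100. Detection was by Alexa488 anti-GST antibody and scanning at 488 nm.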
row,Sequence,gcPBM binding intensity (ln)
1,TTAATATATTAAATCTTACACACTAAAAAATATGTA [CACACA_site307],6.71
2,GAAAATATTATAGCACCACACACTTATTTTATATAT [CACACA_site2265],7.68
3,AACGTTAAAAAAAAAATATATATAAGGAGAAAGCAC [XGTACX_negctrl_site338],8.15
4,TATGCGTCTTGCCTTGCACACTTTTATGAAAAAAAA [CACACA_site5174],7.34
5,AAAAAAAAAAATATATTATTTTACTTGTTTATTTTT [GTGCAC_negctrl_site435],6.87
6,AATAATCAAATATTAAAAATTGTGCAAAAAAAAAAA [XGTACX_negctrl_site399],7.13
7,TCGTACTTGTATTATGCACACATATAATTAAACATA [CACACA_site9089],8.2
8,TATGAAAAAATATATACACACATAATAAAGGTATAT [CACACA_site3737],6.9
9,TAATATTATATATAAACACACATACCCATGTAAATA [CACACA_site5170],7.09
10,TTTGTTTTAAATATTATACACACGTAAAAGTATAAT [CACACA_site7954],6.98
11,TAATATTTCATTAGGTGTACACTACATAGTAGTAGA [XGTACX_site366],7.05
12,TATAAATATTTTATTGTACACACTTTTTATGAATGA [CACACA_site3136],7.01
13,GTTTGTTTGTTTGTTCGTACATATATAAAATAAAAA [XGTACX_site4731],7.48
14,AGACCTATGATATATACACACATATATTTATTTATA [CACACA_site6630],6.98
15,TATATAACTAAAATAACACACATATATAAAAATATA [CACACA_site7416],6.79
16,ATTATAACACTTATTTCATTTGTATGCCCTTTAAAA [CACACA_negctrl_site955],7.11
17,ATAATCAACATTAGGTGTACAAAATATGTATGTTTT [XGTACX_site6696],7
18,TATATATTTTTTAATTGTACACTTCAAAAACAAAAA [XGTACX_site5595],7.23
19,GTAGTTATATTAAGGGTGCTTAATTAGATTAAACAA,9.15
20,ATTGAACACATCTATGCATGCACGGAAAAAAGTACA [TGCATGCA_site401],9.54
21,AAAAACTTAATATTGACACACATTTTTAAGAATAAT [CACACA_site4291],6.76
22,AGAATAAATAAATATTGTACATATAAAATATATATA [XGTACX_site896],7.09

row,Sequence,gcPBM binding intensity (ln)
1,TTCAAATTTCCACATACACACCTTGTAGATATATAT [CACACA_site7984],7.08
2,TATGCAATATATTATATTCTGTAAATATTATATATT [TGCATGCA_negctrl_site67],6.65
3,TTTTTTAAAATATGGACACACATATATATATCTGTA [CACACA_site5535],6.79
4,TATAAAAAATTAAAATTTTTCTTATTTTTTTTAGAT [TGCATGCA_negctrl_site125],6.63
5,ACCACCAGGAACAAAGCACATTAGGAAAAATAAAAC [XGTACX_negctrl_site228],7.05
6,TTGAATAAATTGGAATAAATATAATAAAATAAGGAA [XGTACX_negctrl_site302],7.09
7,CATACATATATTATTGCACACATATAAAATACCCCC [CACACA_site9292],9.04
8,TACCAATAAATGAAGGTGCGTGCTTGCCTTTGCTAT,9.14
9,TAGGAATTTAATAAATGTACATATACATAATATATA [XGTACX_site3672],6.84
10,TTGTATAGTCTGATATGTACATATATATATATATAA [XGTACX_site4307],7.62
11,TGGATACACAAAAATTAAAAAAATAAACAAACAAAT [GTGCAC_negctrl_site105],7.01
12,TCCTTACATTTTAAAACACACAAAAATTAATTGTTA [CACACA_site2313],6.99
13,AAAAAATAGTGGTATGCATGTCCCTTGTATTTTCTT [TGCATGCA_site587],6.77
14,TACTTTTATATGAATACACACAGGAATATAAATATG [CACACA_site7647],7.2
15,AAAATACCCATTTTAGTACACACTTAAAAAATTATT [CACACA_site8966],6.8
16,TGTGTAATATTCTGTTGTACATAACTCATAAATAAA [XGTACX_site5308],7.07
17,TATATATCCTCTGAATGTACTTGTTTAATAATGTAG [XGTACX_site4332],6.93
18,ATAATATAATATATATGTACACATCCTTTTTGTGTA [XGTACX_site2879],7.09
19,TAAAAGTAAAAAGGTAGTACCTAAATAATATATATA [XGTACX_site8399],7.78
20,ATAAGATAGGCATATACACACATTTATTTACAGATA [CACACA_site5754],6.87
21,TTCAACATATTAAAAAGTACAGAATATAACATTATA [XGTACX_site1361],6.86
22,GAATAAAAAATTGGCACACATAAATATATGGATATA [CACACA_site3047],6.99
